Results published in PubChem BioAssay AID2675 (National Center for Advancing Translational Sciences (NCATS), 2010).
Out of some 280,000 compounds screened, about 100 (0.036%) were called active. This list was built around the results that the source calls inconclusive (neither active nor inactive); the mix of calls is not that of the screen. Calls come from the whole dose curve; as a rule, active = well fitted inhibition curve with a large enough effect in the signal ratio, with a control signal flat (not every such curve was filed as active); inconclusive = small, poorly fitted or top-dose-only effect, or effect the other way, or a change in a side signal; inactive = no such curve, though single readings can be large or run the other way; the % refers to the signal ratio. Potencies of inconclusive entries are doubtful fits and often do not repeat. “Side channel” marks fits to a control or component signal instead of the main read-out.
Potency is the fitted concentration of half-maximal effect; tags give direction and shape of the fitted curve or compound fluorescence and quenching.

These compounds were tested against Muscleblind-like protein 1 (Homo sapiens) (UniProt Q9NR56) (assay: qHTS Assay for Inhibitors of MBNL1-poly(CUG) RNA binding). Conditions: TR-FRET MBNL1-His/biotin-(CUG)12 binding, 665/545 ratio; series mostly up to 57.5 µM.
Sequence of UniProt Q9NR56 (Q9NR56 whole entry, looked up): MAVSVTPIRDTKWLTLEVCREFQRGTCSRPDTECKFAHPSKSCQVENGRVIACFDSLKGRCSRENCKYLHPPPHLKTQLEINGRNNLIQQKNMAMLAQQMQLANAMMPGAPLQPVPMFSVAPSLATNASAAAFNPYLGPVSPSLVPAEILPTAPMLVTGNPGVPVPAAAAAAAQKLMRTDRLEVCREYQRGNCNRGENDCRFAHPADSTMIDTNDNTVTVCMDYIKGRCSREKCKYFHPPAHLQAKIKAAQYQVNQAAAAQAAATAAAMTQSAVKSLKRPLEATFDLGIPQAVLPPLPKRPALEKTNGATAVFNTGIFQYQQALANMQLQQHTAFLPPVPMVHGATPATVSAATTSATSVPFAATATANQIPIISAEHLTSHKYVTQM
Source text: NIH Chemical Genomics Center [NCGC] NIH Molecular Libraries Probe Production Centers Network [MLPCN] MLPCN Grant: R03 MH087421-01 Assay Submitter (PI): Charles Thornton NCGC Assay Overview: Expanded CTG repeats in the 3' untranslated region of the DM protein kinase (DMPK) gene causes type I myotonic dystrophy (DM1). DM1 is a multi-systemic disease with a prevalence of 1/7000. Clinical features include myotonia, progressive muscle weakness and wasting, cardiac arrhythmia, insulin resistance, hypersomnolence, cataracts, and other symptoms. The pathogenic effect of expanded CTG repeats stems from deleterious effects of the mutant transcript. CUGexp mRNA accumulates in nuclear foci and sequesters proteins of the muscleblind family, of which MBNL1 is the most common family member in skeletal muscles. The binding interaction between MBNL1 and CUGexp tracts leads to deregulation of alternative splicing and is therefore a key molecular step in the pathogenesis of DM1. To target this binding interaction, we optimized a protein-RNA binding assay in 1536-well format for identification of small molecule inhibitors of biotinylated (CUG)12 and his-tagged MBNL1 binding. Protein-RNA complex of MBNL1-His and Biotin-(CUG)12 captures the detection reagents terbium-labeled anti-His antibody and streptavidin conjugated XL665. This brings the terbium label within close proximity to XL665 to allow time-resolved fluorescence resonance energy transfer (TR-FRET). Inhibitors of MBNL1-(CUG)12 binding will disrupt TR-FRET.
NCGC Assay Protocol Summary: This is a TR-FRET binding assay with MBNL1-His and Biotin-(CUG)12 RNA. The assay uses a ratiometric measurement. In the presence of MBNL1-(CUG)12 complex, the excitation energy is transferred to the XL665 acceptor label, causing emission at 665nm, while the 545nm donor signal […]. Data were normalized to the controls for basal activity (buffer only) and 100% activity (with MBNL1-(CUG)12). […] The final titration was 92 nM to 58 uM. (3) Add 1 ul of terbium labeled anti-His antibody (0.055 ng/ul final concentration) (4) Add 1 ul of streptavidin-XL665 (5 nM final concentration) (5) Incubate 60 min at room temperature (6) Detect the assay plate in a EnVision plate reader (PerkinElmer) with Ex=340 nm, Em1=665 nm and Em2=545 nm. Keywords: mytonic dystrophy type I, DM1, muscleblind like 1, MBNL1, CUG expansion, protein-RNA binding inhibitor, high throughput screening, MLSMR, MLSCN, NIH Roadmap, qHTS and NCGC
With `CCOc1ccc(/C(O)=C2/C(=O)C(=O)N(c3ncccn3)C2c2ccc(C)cc2)cc1` (stereo not drawn) the Potency was inconclusive: 10 µM [quencher, side channel, partial curve]. With `O=C(N/N=C/c1cc(Cl)ccc1O)c1ccccc1Br` the Potency was “inactive”. In the case of `COC(=O)c1ccc(C(=O)NC(=S)Nc2nc3c(s2)CC(C)CC3)cc1` (stereo not drawn), the Potency is reported as “inactive”. In the case of `COC(=O)c1cn[nH]c1NC(=S)Nc1ccccc1C`, the Potency is reported as “inactive”. With `O=C(N/N=C/c1ccc2c(c1)OCO2)c1cccc(NC(=O)c2ccccc2Cl)c1` the Potency was inconclusive: 22.4 µM [quencher, side channel, partial curve]. `COC(=O)C(C)(C)ONC(=O)Nc1ccc(C)cc1` was tested, and the Potency was inconclusive: 0.316 µM [fluorescent, side channel, full curve, poor fit]. For `Cc1ccc(NC(=O)CN(C)S(=O)(=O)c2cccc3nsnc23)cc1`, the Potency was inconclusive: 14.1 µM [quencher, partial curve]. In the case of `CCc1ccc(CNC(=O)Cn2nc(-c3ccccc3)ccc2=O)cc1`, the Potency is reported as “inactive”. With `CC(=O)c1cc2c(s1)-c1cc(F)ccc1OC2` the Potency was inconclusive: 25.1 µM [quencher, side channel, partial curve]. `CC(=O)c1cccc(NC(=O)c2cnn(-c3ccccc3)c2C)c1` was tested, and the Potency was “inactive”. In the case of `Cc1ccc[n+](-c2[nH]c(=O)sc2/C=N/NC(=O)c2ccccc2[O-])c1`, the Potency is reported as inconclusive: 22.4 µM [activator, partial curve]. In the case of `CC1CN(C(=O)COC(=O)c2cc(=O)c3ccccc3o2)CC(C)O1` (stereo not drawn), the Potency is reported as inconclusive: 25.1 µM [quencher, side channel, partial curve]. `C/C(=N\NC(=O)CC#N)c1cc2ccccc2oc1=O` was tested, and the Potency was inconclusive: 11.2 µM [quencher, side channel, partial curve]. In the case of `Cc1ccc(S(=O)(=O)NC2c3cccc4cccc(c34)C2Sc2ncccn2)cc1` (stereo not drawn), the Potency is reported as “inactive”. In the case of `O=C(Nc1cc(S(=O)(=O)N2CCOCC2)ccc1N1CCOCC1)c1ccc(Cl)nc1`, the Potency is reported as “inactive”. With `CN1CC2(Cc3c1ccc1ccccc31)C(=O)OC(C)(C)OC2=O` the Potency was “inactive”. With `COc1cccc(/C=N/NC(=O)c2nnn(-c3nonc3N)c2-c2cccs2)c1` the Potency was inconclusive: 15.8 µM [quencher, side channel, partial curve]. In the case of `CN(C)C(CNC(=O)c1ccc(-c2ccccc2)cc1)c1ccccc1` (stereo not drawn), the Potency is reported as “inactive”. `C=CCN(C(=O)CCS(=O)(=O)c1cccc2nsnc12)c1ccccc1` was tested, and the Potency was inconclusive: 14.1 µM [quencher, partial curve]. `CC(C)[C@H](NC(=O)c1ccccc1Cl)C(=O)Nc1nc(-c2ccccn2)cs1` was tested, and the Potency was “inactive”. `COc1cc(C2Nc3ccc4ncccc4c3C3=C2C(=O)CC(C)(C)C3)cc(OC)c1O` (stereo not drawn) was tested, and the Potency was inconclusive: 22.4 µM [quencher, side channel, partial curve]. With `CC(C)CC(C(=O)O)N1C(=O)C2C3CC(C2C1=O)C1C(c2ccccc2)c2sc(=O)[nH]c2SC31` (stereo not drawn) the Potency was inconclusive: 10 µM [fluorescent, side channel, partial curve, poor fit]. In the case of `CCOc1cc(/C=C2\NC(=S)N(C)C2=O)ccc1OCc1ccc(C(=O)O)cc1`, the Potency is reported as inconclusive: 12.6 µM [quencher, side channel, partial curve]. In the case of `CN1Cc2sc(NC(=S)NC(=O)c3ccccc3)c(C#N)c2CC1(C)C`, the Potency is reported as inconclusive: 14.1 µM [quencher, side channel, partial curve]. With `Cc1ccc(Cn2c(O)c(N=O)c3ccccc32)cc1` the Potency was inconclusive: 15.8 µM [quencher, side channel, partial curve]. `Fc1cccc(NCc2cn3ccccc3n2)c1` was tested, and the Potency was “inactive”. `CCC(=O)Nc1cccc(NC(=O)c2ccc(C)c([N+](=O)[O-])c2)c1` was tested, and the Potency was inconclusive: 12.6 µM [quencher, side channel, partial curve]. `O=C(N/N=C/c1cnc2ccccc2n1)c1cccc(F)c1` was tested, and the Potency was inconclusive: 8.91 µM [quencher, side channel, full curve]. `Cc1cc(C)n2c(SC/C(O)=C(\C#N)c3nc4ccccc4[nH]3)nnc2n1` was tested, and the Potency was “inactive”. With `O=[N+]([O-])c1ccc(N/N=C/c2cccc(O)c2)cc1` the Potency was inconclusive: 12.6 µM [quencher, partial curve]. In the case of `O=C(NNS(=O)(=O)c1ccccc1)c1ccc([N+](=O)[O-])cc1`, the Potency is reported as inconclusive: 14.1 µM [quencher, partial curve]. For `CCN(CC)S(=O)(=O)c1ccc(C(=O)NCCOC(=O)c2ccc(F)cc2F)cc1`, the Potency was “inactive”. In the case of `NC(=O)c1ccc(NCCCN2CCOCC2)c([N+](=O)[O-])c1`, the Potency is reported as inconclusive: 10 µM [quencher, side channel, partial curve]. With `O=C(NNS(=O)(=O)c1ccc(F)cc1)c1cc2ccccc2cc1O` the Potency was inconclusive: 31.6 µM [quencher, side channel, single point]. In the case of `COc1ccc(C2C3=C(CC(C)(C)CC3=O)Oc3ncn(Cc4ccco4)c(=N)c32)cc1` (stereo not drawn), the Potency is reported as inconclusive: 200 µM [inhibitor, partial curve, poor fit]. In the case of `OCCCNc1c2ccccc2nc2ccccc12`, the Potency is reported as inconclusive: 28.2 µM [quencher, side channel, single point]. For `Cc1c(C(=O)O)sc2nc(/C=C/c3cccc(O)c3)[nH]c(=O)c12`, the Potency was inconclusive: 15.8 µM [quencher, side channel, partial curve]. `c1ccc2nc(C3=NCCN3)ccc2c1` was tested, and the Potency was inconclusive: 12.6 µM [quencher, side channel, partial curve]. With `O=C(c1ccc2c3n(nc2c1)-c1ccc(Cl)cc1CO3)N1CCOCC1` the Potency was inconclusive: 15.8 µM [quencher, partial curve]. With `CCOC(CNC(=O)CN1C(=O)COc2ccc(S(=O)(=O)N3CCCC3)cc21)OCC` the Potency was “inactive”. With `CCSc1nnc(NC(=O)NCC(F)(F)F)s1` the Potency was “inactive”. For `COCCNc1ccc(S(=O)(=O)N2CCCC2)cc1[N+](=O)[O-]`, the Potency was inconclusive: 11.2 µM [quencher, side channel, partial curve]. `N/C(Cc1ccc([N+](=O)[O-])cc1)=N\OC(=O)c1ccc(Br)o1` was tested, and the Potency was inconclusive: 31.6 µM [quencher, side channel, single point]. In the case of `O=c1cnnc(N/N=C/c2cccs2)[nH]1`, the Potency is reported as inconclusive: 22.4 µM [quencher, side channel, single point]. In the case of `OCCN1CCN(c2nc(NCc3ccco3)c3ccccc3n2)CC1`, the Potency is reported as “inactive”. In the case of `Cc1csc(NC(=O)CSc2ncnc3c2cnn3-c2ccccc2Cl)n1`, the Potency is reported as inconclusive: 1.26 µM [quencher, side channel, full curve, poor fit]. In the case of `Cc1c(C#N)c(O)n(CCO)c(=O)c1N=Nc1ccc2c(c1)COC2=O`, the Potency is reported as inconclusive: 2.51 µM [quencher, side channel, partial curve]. For `CC(=O)c1ccc(S(=O)(=O)N2CCN(C(=O)C3CCCC3)CC2)cc1`, the Potency was inconclusive: 0.708 µM [fluorescent, side channel, single point]. `O=C(NCc1cccnc1)c1cc([N+](=O)[O-])ccc1N1CCOCC1` was tested, and the Potency was inconclusive: 25.1 µM [quencher, side channel, partial curve]. With `COc1ccc(/C=N/NC(=O)c2nonc2N)cc1OC` the Potency was inconclusive: 35.5 µM [quencher, side channel, single point]. `COc1cc(-c2nc3ccccn3c2N)ccc1O` was tested, and the Potency was inconclusive: 28.2 µM [quencher, single point]. `CCn1c(=O)c([N+](=O)[O-])c(NCC2CCCO2)c2ccccc21` (stereo not drawn) was tested, and the Potency was inconclusive: 28.2 µM [quencher, side channel, partial curve]. With `O=C(Nc1ccc2c(c1)OCCO2)C1CCCN(S(=O)(=O)c2cccnc2)C1` (stereo not drawn) the Potency was inconclusive: 0.562 µM [quencher, side channel, single point]. `O=C(Cn1c(=O)n(CC(=O)NCc2ccccc2)c2ccccc21)NCc1ccccc1` was tested, and the Potency was inconclusive: 0.1 µM [quencher, side channel, full curve, poor fit]. `COCCCn1c(=O)c2sccc2n2c(CCCC(=O)NCc3ccccc3)nnc12` was tested, and the Potency was “inactive”. In the case of `COc1ccc(OC)c(NC(=O)NNC(=O)COc2ccc([N+](=O)[O-])cc2)c1`, the Potency is reported as inconclusive: 12.6 µM [quencher, side channel, partial curve]. `Cn1c2ccccc2c(=O)c2c(=O)n(-c3ccc(F)cc3)c(-c3cccs3)nc21` was tested, and the Potency was “inactive”. In the case of `Cn1c(Cn2c(=O)sc3ccccc32)nnc1SCC(=O)NC1CCCC1`, the Potency is reported as inconclusive: 7.94 µM [fluorescent, side channel, single point]. In the case of `O=[N+]([O-])c1cccnc1NCCNc1ncc(C(F)(F)F)cc1Cl`, the Potency is reported as inconclusive: 20 µM [quencher, side channel, partial curve]. With `O=C(CCC(=O)Nc1ccc(F)cc1)N/N=C/c1cc([N+](=O)[O-])ccc1O` the Potency was “inactive”. With `COCC(=O)N/N=C/c1ccc(Sc2nc3ccccc3s2)o1` the Potency was inconclusive: 11.2 µM [quencher, side channel, partial curve]. `CCOC(=O)c1ccc(NS(=O)(=O)c2cccc3nsnc23)cc1` was tested, and the Potency was inconclusive: 20 µM [quencher, side channel, partial curve]. With `CCCc1nnc(SCc2ccc(C(=O)OC)o2)n1N` the Potency was inconclusive: 158 µM [inhibitor, partial curve, poor fit].
